These results are taken from PubChem BioAssay AID463173 (ICCB-Longwood Screening Facility, Harvard Medical School, 2010).

The campaign covered roughly 52,000 compounds. About 1,700 (3.3%) were called active. No stated cut-off is given here; in the data, active means survival mostly below about 52% (no sharp cut-off); inactive means mostly above about 56%. The list shows a part of the results.

In this assay the test system is Wild type. The assay can be described thus: growth inhibition of S. aureus wild type versus tarO mutant, primary screen, teichoic acid synthesis inhibitors, RN4220, OD600 (AID 463173). The conditions noted are these: S. aureus RN4220 wild type/DeltatarO growth, OD600, 18 h, active compounds read low, screened at 18.75 µg/mL (by protocol).
In the case of `O=C(CSc1nccn1Cc1ccc(F)cc1)NCc1ccc(F)cc1`, the survival was inactive: 73%.
Then `COC(=O)/C=c1\sc2nc(N)nn2c1=O`, with inactive: 102%.
In the case of `CN1CCN(C(=O)Cn2ncc3c4ccccc4n(Cc4ccc(Cl)cc4)c3c2=O)CC1`, the survival is inactive: 84%.
Take `Cc1cc(C)c(NC(=O)c2c(C)nn(-c3ccc(F)cc3)c2-n2cccc2)c(C)c1`: the survival is inactive: 81%.
For `O=C(CCSCc1ccc(Cl)cc1)NCc1ccc(F)cc1Cl`, the survival is inactive: 79%.
Take `CS(=O)(=O)N1CCc2cc(C(=O)N3CCN(c4ccccc4F)CC3)ccc21`: the survival is inactive: 89%.
Then `COc1ccc(Nc2cc(C(=O)NC3CCCC3)c3ccccc3n2)cc1`, with inactive: 84%.
As for `COc1ccc(C2C=C(c3ccc(Br)cc3)Nc3nnnn32)c(OC)c1` (stereo not drawn), the survival is inactive: 66%.
For the compound `COc1ccccc1CNc1nc2c(S(=O)(=O)c3ccccc3)nnn2c2ccc(Cl)cc12`, the survival was inactive: 88%.
On to `Cc1ccc(NC(=O)c2c(NC(=O)c3ccccc3Cl)sc3c2CCC3)cc1`, for which the survival is inactive: 129%.
With `O=C(NC1CCCCC1)c1ccc(CSc2nc3ccncc3n2Cc2ccc(F)cc2)cc1`, the survival was inactive: 77%.
Regarding `CCc1nn2c(=O)c(S(=O)(=O)Nc3ccc(Br)cc3F)c(C)nc2s1`, the survival was inactive: 61%.
`Cc1ccccc1NC(=O)Cn1nnc(C(=O)NCCc2ccccc2)c1N`: the survival was inactive: 109%.
Next, `CC(C)C(=O)Nc1ccc(-c2cn3ccccc3n2)cc1`: inactive: 117%; `NC(=O)c1nn2c(C(F)(F)F)cc(-c3ccc(Br)cc3)nc2c1Cl`: inactive: 88%.
Regarding `CC(=O)c1cccc(NC(=O)Cn2nc(C(F)(F)F)c3c2CCC3)c1`, the survival was inactive: 88%.
For `Cc1ccc2nc(Cl)c3cc(C(=O)NCCCN(C)Cc4ccccc4)sc3c2c1`, the survival is active: -3%.
Regarding `c1coc(C2Nc3cccc4cccc(c34)N2)c1`, the survival is inactive: 116%.
In the case of `O=C(Cn1c(C(=O)N(Cc2ccco2)CC2CCCO2)cc2sccc21)c1ccccc1` (stereo not drawn), the survival was inactive: 120%.
As to `CSc1nc(=O)c2c(n1C)NC(=O)CC2c1cc(F)cc(F)c1` (stereo not drawn), the survival was inactive: 83%.
Turning to `CC(=O)Nc1ccc(Oc2nc(C)cc(C)n2)cc1`, the survival was inactive: 111%.
Turning to `Cc1ccc(C)c(N(C)C(=O)Cc2c(C(=O)O)[nH]c3ccc(Cl)cc23)c1`, the survival is inactive: 56%.
Next, `CC(C)(C)CC(C)(C)c1ccc(OCC(=O)Nc2ccc(S(=O)(=O)Nc3ncccn3)cc2)cc1`: inactive: 82%; `OC(CN1CCNCC1)Cn1c2ccccc2c2ccccc21` (stereo not drawn): inactive: 115%.
On to `COc1ccc(C2C(C(=O)Nc3ccc(C)cc3C)=C(C)Nc3nc(SCc4cccc(C)c4)nn32)c(OC)c1` (stereo not drawn), for which the survival was inactive: 146%.
Next, `COc1ccc(N2CCN(S(=O)(=O)c3ccc(-c4cnc(C5CC5)o4)cc3)CC2)cc1`: inactive: 71%; `COc1cccc(CNC(=O)CN2C(=O)N(c3cccc(Cl)c3)S(=O)(=O)c3ccccc32)c1OC`: inactive: 75%.
With `COc1ccccc1-c1nn2c(=O)cc(CN3CCN(C(=O)/C=C/c4ccccc4)CC3)nc2s1`, the survival was inactive: 74%.
On to `CN(C)c1ccc(Nc2nc3ccccc3n3nnnc23)cc1`, for which the survival was inactive: 107%.
As to `COc1ccccc1CNC(=O)CSc1nc(=O)[nH]c2c1CCC2`, the survival is inactive: 70%.
As for `CC1=C(C(=O)Nc2ccc(C)cc2C)C(c2ccc(Br)cc2)n2ncc(C(=O)Nc3cccc(C)c3)c2N1` (stereo not drawn), the survival is inactive: 133%.
On to `Cc1[nH]c2ccc(-c3nnc(SCC(=O)N4c5ccccc5CCc5ccccc54)o3)cc2c1C`, for which the survival is inactive: 101%.
As for `CCc1ccc(S(=O)(=O)NCc2nc3cccnc3n2Cc2cccc(OC)c2)cc1`, the survival is inactive: 72%.
Take `CCCCCn1c(CNC(=O)c2ccccc2)nc2ccccc21`: the survival is inactive: 89%.
Then `CCOc1ccc(NC(=O)Cn2c(=O)n(CCCCC(=O)NCc3ccc4c(c3)OCO4)c(=O)c3ccccc32)cc1`, with inactive: 112%; and `CCN(CC)c1ccc(-n2nc3cc(C)c(NC(=O)c4ccccc4C)cc3n2)c(C)c1`, with inactive: 95%.
Then `Cc1ccccc1Cn1c(=O)n(CC2CCC(C(=O)N3CCOCC3)CC2)c(=O)c2sccc21` (stereo not drawn), with inactive: 85%; and `CCN(CC)S(=O)(=O)c1cccc(C(=O)Oc2cccnc2)c1`, with inactive: 109%; and `COc1ccc(S(=O)(=O)c2nnn(-c3ccc(C(C)C)cc3)c2C)cc1`, with inactive: 78%.
As to `Cc1c(Cl)cccc1Nc1nn2c(=O)c3ccc(C(=O)NCCC4=CCCCC4)cc3nc2s1`, the survival is inactive: 74%.
In the case of `Cc1cc(C)c(S(=O)(=O)N2CCN(Cc3ccc4c(c3)OCO4)CC2)cc1C`, the survival is active: 9%.
Next, `COc1ccc(CCNC(=O)Cc2c(C)c3cc4c(C)coc4cc3oc2=O)cc1OC`: inactive: 102%; `CN(C(=O)c1cc2nc(-c3ccco3)cc(C(F)(F)F)n2n1)C12CC3CC(CC(C3)C1)C2`: inactive: 110%; `Cc1ccc(-n2c(=O)c3c(C)c(C)sc3n(Cc3ccc(F)cc3Cl)c2=O)cc1C`: inactive: 60%.
As for `CCOc1ccc(C2C(=O)N(C3CCCCC3)CC(=O)N2CCc2ccccc2)cc1OC` (stereo not drawn), the survival was inactive: 117%.
Consider `COC(=O)CN(c1ccccc1Cl)S(C)(=O)=O`, for which the survival was inactive: 105%.
Take `Oc1ccc(-c2nc3ccc(Cl)cn3c2Nc2ccc3c(c2)OCO3)cc1`: the survival was inactive: 92%.
Take `CC(=O)c1ccc(NC(=O)Cn2ncc3c4ccccc4n(Cc4ccccc4)c3c2=O)cc1`: the survival is inactive: 84%.
For the compound `Cc1cc(C)c(NS(=O)(=O)c2ccc(-c3coc(C)n3)cc2)c(C)c1`, the survival is inactive: 67%.
On to `COc1cc(C(=O)NCc2nc3cccnc3n2Cc2ccc(C)cc2)cc(OC)c1OC`, for which the survival was inactive: 92%.
Then `FC(F)(F)C(F)(F)C(F)(F)c1nnc2ccc(N3CCOCC3)nn12`, with inactive: 103%.
For `O=C(NCc1ccc(Cl)cc1)C1CCN(S(=O)(=O)c2ccccc2)CC1`, the survival was inactive: 124%.
`COc1ccc(N(C(=O)c2ccccc2)S(=O)(=O)c2ccc3c(c2)n(C)c(=O)n3C)cc1`: the survival was inactive: 72%.
For the compound `COc1ccccc1CNC(=O)CCn1cnc2ccccc2c1=O`, the survival was active: -6%.
For the compound `O=C(NC1CC(=O)N(c2ccc(F)cc2)C1)c1ccc2c(c1)OCO2` (stereo not drawn), the survival was inactive: 71%.
With `O=C(c1ccc2c(c1)N(Cc1cccc(Cl)c1)C(=O)c1ccccc1S2=O)N1CCN(c2cccc(C(F)(F)F)c2)CC1` (stereo not drawn), the survival is inactive: 90%.
Then `Cc1ccc(N(C)C(=O)CN2C(=O)CCc3cc(S(=O)(=O)N4CCOCC4)ccc32)cc1`, with inactive: 93%; and `O=C(N=Nc1[nH]c2ccccc2c1O)c1ccc(Cl)cc1`, with inactive: 106%; and `Cc1cccc(Cn2nnc3c(=O)[nH]c(C4CCCN(C(=O)c5ccccc5Cl)C4)nc32)c1` (stereo not drawn), with inactive: 93%.
As for `CCN1CCN(C(c2ccccc2Cl)c2c(O)cc(C)n(Cc3ccco3)c2=O)CC1` (stereo not drawn), the survival was inactive: 75%.
Then `O=C(Cn1c(=O)n2nc(-c3cccc(F)c3)nc2c2ccccc21)N1CCN(c2ccc(F)cc2)CC1`, with inactive: 97%.
As to `Cn1c(=O)c2c(ncn2Cc2ccc(Cl)cc2)n(C)c1=O`, the survival was inactive: 85%.
For the compound `CC1CCN(C(=O)C(C)NCc2ccc(F)cc2)CC1` (stereo not drawn), the survival is inactive: 106%.
For the compound `COc1ccc(N=C2SCC(=O)N2C)cc1`, the survival is inactive: 107%.
For `COc1ccc(N2CCN(C(=O)CNS(=O)(=O)c3ccc(Br)s3)CC2)cc1`, the survival is inactive: 61%.
Consider `N#Cc1nc(/C=C/c2ccc(F)cc2)oc1NCc1ccc(F)cc1`, for which the survival is inactive: 79%.
In the case of `Cc1cccc(N2CCN(C(=O)c3noc4c3CCCCC4)CC2)c1C`, the survival is inactive: 94%.
Regarding `CC(NC(=O)c1ccc(F)cc1)c1nc2ccccc2[nH]1` (stereo not drawn), the survival is inactive: 68%.
Next, `CCc1ccc(NC(=O)Cn2c(=O)n(-c3cc(OC)c(OC)c(OC)c3)c(=O)c3ccccc32)cc1`: inactive: 92%.
For `Cc1cc(C(=O)C(=O)Nc2nncs2)c(C)n1-c1ccc(Cl)cc1`, the survival was inactive: 85%.
Consider `COc1ccccc1NC(=O)c1cn(-c2ccccc2)nc1-c1ccccc1`, for which the survival was inactive: 81%.
`O=C(CNC(=O)c1ccc(F)cc1)OCc1cc(=O)n2nc(C3CCCCC3)sc2n1`: the survival is inactive: 99%.
Then `COc1ccc(OC)c(NC(=O)CN2CCCN(Cc3ccccc3Cl)S2(=O)=O)c1`, with inactive: 133%; and `COc1ccc(NC(=O)C2C3C=CC(O3)C2C(=O)NCc2cccnc2)cc1` (stereo not drawn), with inactive: 100%.
Consider `CCOc1cc(CNC(=O)c2ccc3c(c2)N(C)C(=O)C2CCCCN32)ccc1OC` (stereo not drawn), for which the survival is inactive: 88%.
In the case of `CCOc1ccccc1C(=O)NCc1nc2cccnc2n1Cc1ccc(C)cc1`, the survival was inactive: 131%.
Then `COc1ccc(CNC(=O)CCCn2nc(C)c3c(C)n(-c4ccc(C)cc4)nc3c2=O)cc1OC`, with inactive: 71%.
Then `Cc1ccc(N2CCN(C(=O)c3cnn(-c4ccc(C)c(C)c4)c3C3CCNCC3)CC2)c(C)c1`, with inactive: 65%; and `Cc1ccc(-n2ncc3c(NC4CCCCC4)ncnc32)cc1Cl`, with inactive: 72%; and `COc1cc(S(=O)(=O)N(CCc2ccccc2)Cc2cccs2)ccc1-n1cnnn1`, with inactive: 108%.
Then `CCN(c1ccccc1)c1nnc(NC(=O)Nc2ccc(Br)c(C)c2)s1`, with inactive: 89%; and `O=C(c1ccc2c(Cl)c3c(nc2c1)CCCC3)N1CCN(c2cccc(C(F)(F)F)c2)CC1`, with inactive: 85%; and `O=C(CSc1nccn1Cc1ccco1)Nc1cc(C(F)(F)F)ccc1Cl`, with inactive: 71%.
As for `CCOc1ccc(CNC(=O)CCS(=O)(=O)c2cc3c4c(c2)CCN4C(=O)CC3)cc1OC`, the survival is inactive: 85%.
Regarding `O=C(CN1C(=O)COc2ccc(S(=O)(=O)N3CCCCCC3)cc21)N1CCN(c2ccccc2F)CC1`, the survival is inactive: 73%.
Then `CCc1ccc(S(=O)(=O)c2cn(CC)c3cc(N4CCCCC4)c(F)cc3c2=O)cc1`, with inactive: 68%; and `COc1ccc2nc(NC(=O)c3cc(=O)c4cc(C)cc(C)c4o3)sc2c1`, with inactive: 82%; and `Cc1ccc(CNC(=O)CN2CCN(Cc3ccc(F)cc3Cl)C2=O)cc1`, with inactive: 81%.
